{"source": "the RNAGym collection of RNA variant scans (doi:10.7554/elife.90254)", "parents": {"B1": {"name": "LINE1-mini (parent)", "chain": "GGCAGAGCUCAACACAGCGUGGCAAAGUGGCUGUGGCUAGACUGCC"}}, "note": "Read counts are not given, so values of variants with three or more changes are uncertain."}
{"variants_of": "B1", "test": "self-cleavage, relative activity (ratio to wild type); higher = more cleavage; in vitro, sequencing; the parent is a self-cleaving ribozyme"}
{"variant": "GGCGGAGCUCAACCCAGCGUGGCAAAAUGUCUGUGGCUAGACUGAC", "note": "[A4G A14C G27A G30U C45A]", "self-cleavage": 0.09}
{"variant": "GGCGGAGCUCAACGCAGCGUGGCAAAGGGGCUGUGGCUAGACUGCC", "note": "[A4G A14G U28G]", "self-cleavage": 0.08}
{"variant": "GGCGGGGCUCAACACAGCGUGGCAAAAUGUCUGUGACUAGACUUCC", "note": "[A4G A6G G27A G30U G36A G44U]", "self-cleavage": 0.04}
{"variant": "GGCCGAGCUCAACACAGCGCGCCAAGGUGGCUGUGGAUAGACUGCC", "note": "[A4C U20C G22C A26G C37A]", "self-cleavage": 0.03}
{"variant": "GGCCGAGCAAAACACAGCGUGGCAAAGCGGCUGUGGCUAGACUGCC", "note": "[A4C U9A C10A U28C]", "self-cleavage": 0.03}
{"variant": "GGCGGAGCUCAACGCGGCGUGGCAAAGUGACUGUGGCUAGAAUGCC", "note": "[A4G A14G A16G G30A C42A]", "self-cleavage": 0.13}
{"variant": "GGCGGGGCACAACACAGCGUGGCAAAGUGGCUGUGGCUAGACUGCC", "note": "[A4G A6G U9A]", "self-cleavage": 0.15}
{"variant": "GGCGGCCCUCAACACAUCGUGGCAAAGUGGCUGUGGCCAGACUGCC", "note": "[A4G A6C G7C G17U U38C]", "self-cleavage": 0.06}
{"variant": "GGCGGAGCUCAACGCAGCGUGGCAAAGUUGCUGUGGCUAGGCUGCC", "note": "[A4G A14G G29U A41G]", "self-cleavage": 0.06}
{"variant": "GGCGGGGCUCAACACAGCGUGGCAAAGUGACUGUGUCUUGACUGCC", "note": "[A4G A6G G30A G36U A39U]", "self-cleavage": 0.01}
{"variant": "GGCGGAGCUCAGCACAGUGUGCCAAAGUGGCUGCGGCUAGACUGGC", "note": "[A4G A12G C18U G22C U34C C45G]", "self-cleavage": 0.01}
{"variant": "GGCGGAGCUCAUCACAGCGUGGCAAAGGGGCUGUAGCUAGACUGCC", "note": "[A4G A12U U28G G35A]", "self-cleavage": 0.28}
{"variant": "GGCGGAGCUCAACGCAGCGUCGGGAAGUGGCUGUGGCUAGACUGCC", "note": "[A4G A14G G21C C23G A24G]", "self-cleavage": 0.22}
{"variant": "GGCGGAGCUCAGCACAGCGUGGAAAAGUGGCUGUGGCUAGACUGCC", "note": "[A4G A12G C23A]", "self-cleavage": 0.04}
{"variant": "GGCGGAGCUCAACGCAGCGAGGCAAAGUGGCUGUGGCUAGACUGCC", "note": "[A4G A14G U20A]", "self-cleavage": 0.49}
{"variant": "GGCGGAGCUCACCACAGCGUGGCAAAGUGGCGGUGGCUAGACUGCC", "note": "[A4G A12C U32G]", "self-cleavage": 0.01}
{"variant": "GGCCGAGCUCAACACAGCGUGGCAAAGCGGCGGUGGCUAUACUACC", "note": "[A4C U28C U32G G40U G44A]", "self-cleavage": 0.1}
{"variant": "GGCCGAGCACAACACAGCGUGUCAAAGUGGCUGAGGCUAGACUGCC", "note": "[A4C U9A G22U U34A]", "self-cleavage": 0.14}
{"variant": "GGCGGAGCUCAACCCAGCGUGGCAAAGUGGCUAUGGCUAGACUGCC", "note": "[A4G A14C G33A]", "self-cleavage": 0.21}
{"variant": "GGCGGUGCUCAACACAGCGUGCCUAAGUGGCUGUGGCUAGACUGCC", "note": "[A4G A6U G22C A24U]", "self-cleavage": 0.15}
{"variant": "GGCCGAGCCCAACACAGCGUAGCAAAGUGGCUGUGGCUAGACCGCC", "note": "[A4C U9C G21A U43C]", "self-cleavage": 0.01}
{"variant": "GGCCGAGCACAACACAGCGAGGCAAAGUGGCUGUUGCUAGACUGCC", "note": "[A4C U9A U20A G35U]", "self-cleavage": 0.25}
{"variant": "GGCCGAGCUCAACACAGCGAGGCAAAGAGGCUGUGGCUAGACUGCC", "note": "[A4C U20A U28A]", "self-cleavage": 0.06}
{"variant": "GGCCGAGCGCAACACAGCGUGGCAAAGUGGCUGUGGCUAGACUGCU", "note": "[A4C U9G C46U]", "self-cleavage": 0.03}
{"variant": "GGCCGAGCUCAACACAGCGUGGCAAAGUGGCUAUGGCUAAACUGGC", "note": "[A4C G33A G40A C45G]", "self-cleavage": 0.09}
{"variant": "GGCGGAGCUCAACCCAGCGUGGAAAAGUGGCUGUGGCUAGACUGCC", "note": "[A4G A14C C23A]", "self-cleavage": 0.33}
{"variant": "GGCCGAGCGCAUCGCAUCGUGGCAAAGUGGCUGUGGCUAGACUGCC", "note": "[A4C U9G A12U A14G G17U]", "self-cleavage": 0.1}
{"variant": "GGCGGAGCUCAACCCAGCGUGGCAUAGUGGGUGUGGCUAGACUGCC", "note": "[A4G A14C A25U C31G]", "self-cleavage": 0.06}
{"variant": "GGCGGUGCUCAAAACAGCGUGGCAAAGUGGCUGUGGCUAGACUACC", "note": "[A4G A6U C13A G44A]", "self-cleavage": 0.33}
{"variant": "GGCGGAGCUCACCACAGCGUGGAAAAGUGGCUGUGGCUAGACUGCC", "note": "[A4G A12C C23A]", "self-cleavage": 0.01}
{"variant": "GGCGGAGCUCAGCACAGCCUGGCAAAUUAUCUGUGGCUAGACUGCC", "note": "[A4G A12G G19C G27U G29A G30U]", "self-cleavage": 0.03}
{"variant": "GGCCGAGCUCAACACAGCGUGGCAAAGUGGCUGUGGCUAAUCUGCC", "note": "[A4C G40A A41U]", "self-cleavage": 0.1}
{"variant": "GGCCGAGCUCAACACAGCGAGGCAACGUGGCUGUGGAUAGACUGCC", "note": "[A4C U20A A26C C37A]", "self-cleavage": 0.02}
{"variant": "GGCGGUGCUCAACUCAGCGUGGCAAAGUGGCUGUGGCUAGACUGCC", "note": "[A4G A6U A14U]", "self-cleavage": 0.22}
{"variant": "GGCGGAGCUCAUCACAGCGUGGCAAAGUGGCUGUGGCUAGAGUGCC", "note": "[A4G A12U C42G]", "self-cleavage": 0.01}
{"variant": "GGCGGAGCUCCACACAGCGUGGAAAACUGGCUGUGGCUAGACUGCA", "note": "[A4G A11C C23A G27C C46A]", "self-cleavage": 0}
{"variant": "GGCGGUGCUCAACAAAGCGUCGCAAAGUGUCUGUGGCUAGACUGCC", "note": "[A4G A6U C15A G21C G30U]", "self-cleavage": 0.03}
{"variant": "GGCGGCGCUCGACACAGCGUGGCAAAGUGGCUGUGGCUAGACUGCC", "note": "[A4G A6C A11G]", "self-cleavage": 0.02}
{"variant": "GGCGGAGCUCAGCACAGCGUAGCAAAGUGGCGGUGGCGAGACUGCC", "note": "[A4G A12G G21A U32G U38G]", "self-cleavage": 0.08}
{"variant": "GGCCGAGCACAACACAGCGUGGCAAAAUGUCUGUGGCUAGACUGCC", "note": "[A4C U9A G27A G30U]", "self-cleavage": 0.19}
{"variant": "GGCGGUGCUCAACACAGCGUGGCAAAGUGGCUGCGGUUGGACUGCC", "note": "[A4G A6U U34C C37U A39G]", "self-cleavage": 0.15}
{"variant": "GGCGGAGCUCAACGCAUCGUGGCAAAGUGGCUGUGGGUAGAAUGCC", "note": "[A4G A14G G17U C37G C42A]", "self-cleavage": 0.03}
{"variant": "GGCCGAGCAAAACACAACGUGGCAAAGUGGCUGUGGCUAGACUGCC", "note": "[A4C U9A C10A G17A]", "self-cleavage": 0.04}
{"variant": "GGCCGAGCCCAACAAAGCGUGGCCAAGUGGCUGUCGCUAGACUGCA", "note": "[A4C U9C C15A A24C G35C C46A]", "self-cleavage": 0.01}
{"variant": "GGCCGAGCCCAACACAGCGUGUCAAAGUAGUUGUGGCUAGACUGCC", "note": "[A4C U9C G22U G29A C31U]", "self-cleavage": 0.01}
{"variant": "GGCGGAGCUCAGCACAGCGUGGCAAAUUGGCUGUGGCUAGACUGCC", "note": "[A4G A12G G27U]", "self-cleavage": 0.01}
{"variant": "GGCGGAGCUCAGCACAGCGAGGCCAAGUGUCUGUUGCUAGACUGCC", "note": "[A4G A12G U20A A24C G30U G35U]", "self-cleavage": 0.05}
{"variant": "GGCCGAGCUCAACACAGCGUGGCAAAGUGGCUGUGACUGGACUUCC", "note": "[A4C G36A A39G G44U]", "self-cleavage": 0.08}
{"variant": "GGCCGAGCUCAACACAGCGUGGCAAAGUGGCCGUGGCUAGACUGAC", "note": "[A4C U32C C45A]", "self-cleavage": 0.05}
{"variant": "GGCGGAGCUCACCACAGCGUGGCAAAGUGGCUAUGGCCAGACUGCC", "note": "[A4G A12C G33A U38C]", "self-cleavage": 0.02}
{"variant": "GGCGGGGCUCAACACAGCGUGGCUAAGUGUCUGUGGCUAGACUGCC", "note": "[A4G A6G A24U G30U]", "self-cleavage": 0.09}
{"variant": "GGCGGAGCUCAACCCAUCGUGGCAAAGUGGCUGUGGCUAGACUGCC", "note": "[A4G A14C G17U]", "self-cleavage": 0.26}
{"variant": "GGCCGAGCUCAACACAGCGUGGCAAAGUGGCUGUGGCUAGACAUCC", "note": "[A4C U43A G44U]", "self-cleavage": 0.1}
{"variant": "GGCGGAGCUCAACGCAGCGUGGCAAAGUGGUUGUGGCUAGACUGCC", "note": "[A4G A14G C31U]", "self-cleavage": 0.04}
{"variant": "GGCCGAGCUCAACACAGCGUGGCAAAGUGGCCGUCGCUAGACUGCC", "note": "[A4C U32C G35C]", "self-cleavage": 0.06}
{"variant": "GGCCGAGCUCAACACAGCGUGGCAAAGUGUCUGUGGCUAGUCUGCC", "note": "[A4C G30U A41U]", "self-cleavage": 0.03}
